Among all 44,000 compounds or so, about 340 (0.77%) were called active. About 5% were inconclusive and are not listed. Calls come from the whole dose curve; as a rule, active = well fitted inhibition curve with a large enough effect; inconclusive = small, poorly fitted or top-dose-only effect; inactive = flat fitted curve, though single readings scatter. This is one part of the list.
Assay: Acumen qHTS Assay for Inhibitors of the mTORC1 Signaling Pathway in MEF (Tsc2-/-, p53-/-) Cells: Sytravon;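 note: plate controls were DMSO for no effect and rapamycin for full effect; nearly all actives have a fitted effect of over 50% in size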
Details: phospho-rpS6 immunofluorescence/PI, 24 h; series mostly up to 38.3 µM; activity change, negative = inhibition: at the top concentration
Method in brief: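 Compounds act on Tsc2-/-, p53-/- fibroblasts carrying an empty vector for 24 h before fixation and dual staining for phospho-S6 and DNA (propidium iodide). Values are percentages of cells above a rapamycin-defined pS6/PI threshold.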

Row | Structure (SMILES) | activity change, negative = inhibition
1 | CCOC(=O)c1cc(-c2ccccc2)n(CCC(=O)NCCc2ccc(OC)c(OC)c2)c1C | inactive: -8.27%
2 | COc1ccc(-c2nc3cc(NC(=O)c4cc5ccccc5o4)ccc3o2)cc1 | inactive: 3.79%
3 | Cc1ccn2c(Nc3ccccc3C)c(-c3ccccc3)nc2c1 | inactive: 1.91%
4 | Cc1cccc(OCC(=O)Nc2ccccc2OCc2cc(=O)n3cc(C)ccc3n2)c1 | inactive: -3.34%
5 | Cc1ccc(NC(=O)CSc2nnc(COc3ccc(Cl)cc3)o2)c(C)c1 | inactive: 2.26%
6 | O=C(Nc1ccc2nc(SCC(=O)N3CCOCC3)sc2c1)c1ccccc1Cl | inactive: 0.771%
7 | Cc1ccc(NCc2cccn2-c2nnc(N3CCC(C(=O)NCc4ccc(F)cc4)CC3)s2)cc1 | inactive: -3.87%
8 | CCn1ccc2cc(S(=O)(=O)N3CCC(C(=O)NCc4ccc(F)cc4)CC3)ccc21 | inactive: -8.64%
9 | O=C(Cn1c(=O)n2nc(-c3cccc(F)c3)nc2c2ccccc21)NCc1ccc(Cl)cc1 | inactive: 3.08%
10 | COc1cccc(NC(=O)Cn2c(=O)n(Cc3ccco3)c(=O)c3cc(OC)c(OC)cc32)c1 | inactive: -20.5%
11 | COc1ccccc1CNC(=O)CS(=O)(=O)Cc1nc(-c2ccccc2C)oc1C | inactive: -0.493%
12 | CSc1ccc(CNC(=O)Cn2ccc3cc(S(=O)(=O)N4CCCC4)ccc32)cc1 | inactive: -9.04%
13 | CC(C)CCNC(=O)CSc1nc2ccccc2nc1Cc1ccc(Cl)cc1 | inactive: 2.95%
14 | CN(C)c1ccc(C(=O)NCc2ccc3c(c2)CCN3C(=O)c2ccccc2)cc1 | inactive: -1.46%
15 | CC1CCN(c2nc(-c3ccc(Br)cc3)nc3ccccc23)CC1 | inactive: 0.802%
16 | CN(C)c1ccc(CNC(=O)c2sc3ncccc3c2-n2cccc2)cc1 | inactive: 0.203%
17 | Cc1cc(C)cc(NC(=O)CCN2C(=O)c3ccccc3Sc3ncccc32)c1 | inactive: 2.37%
18 | CC1CCCCN1CCCNC(=O)Cn1ncc2c3ccccc3n(Cc3ccccc3F)c2c1=O (configuration not stated) | inactive: -0.352%
19 | Cc1ccc(-c2cc(C(F)(F)F)c(C#N)c(SCC(=O)Nc3ccccc3F)n2)cc1 | inactive: -0.281%
20 | CCN(c1ncnc2c1cnn2-c1cccc(Cl)c1)C1CCCCC1 | inactive: -0.604%
21 | COc1cccc(CNC(=O)CN2C(=O)CSc3ccc(S(=O)(=O)N4CCCC4)cc32)c1 | inactive: 1.34%

Row | Structure (SMILES) | activity change, negative = inhibition
22 | COCCn1c(C)cc(O)c(C(c2ccc(Cl)cc2)N2CCCCC2)c1=O (configuration not stated) | inactive: 5.94%
23 | COc1ccc(C2C(=O)N(C3CCCCC3)CC(=O)N2C2CCCCC2)cc1 (configuration not stated) | inactive: 4.81%
24 | CCN(Cc1ccccc1)C(=O)C(CC(C)C)NS(=O)(=O)c1ccc2c(c1)CCN2C(C)=O (configuration not stated) | inactive: -0.922%
25 | O=C(Nc1ccc2nc(SCC(=O)N3CCOCC3)sc2c1)c1ccc(Cl)cc1 | inactive: 0.885%
26 | O=C(c1ccccc1)N1CCCCC1CCN1CCCCC1 (configuration not stated) | inactive: 3.94%
27 | Cc1ccc(-n2c(=O)c3ccccc3n(CC(=O)Nc3cccc(C(F)(F)F)c3)c2=O)cc1 | inactive: -0.0733%
28 | Cc1cccc(N2CCN(C(=O)c3nn(C)c4c3CS(=O)(=O)c3ccccc3-4)CC2C)c1 (configuration not stated) | inactive: 10.4%
29 | N#C/C(=C\c1ccc(Cl)cc1)c1nc(-c2cc3c(ccc4ccccc43)oc2=O)cs1 | inactive: -9.06%
30 | COc1cccc(N2CCN(c3ncnc4onc(-c5ccc(Cl)cc5)c34)CC2)c1 | inactive: -2.94%
31 | CN(C1CCCCC1)S(=O)(=O)c1ccc2c(c1)c(=O)c(C(=O)NCc1ccc(Cl)cc1)cn2C | inactive: 0.233%
32 | O=C(CN1C(=O)CC(c2ccc(F)cc2)=Nc2ccccc21)NCc1ccccc1Cl | inactive: -17%
33 | COc1ccc(C(=O)Nc2ccc(-c3cc(C(F)(F)F)nn3-c3ccccc3)cc2)cc1OC | inactive: 4.5%
34 | CC(NC(=O)c1cc2sccc2n1Cc1ccc(F)cc1)c1ccccc1 (configuration not stated) | inactive: -15.9%
35 | CCc1cccc(C)c1NS(=O)(=O)c1ccc(-n2cccn2)cc1 | inactive: -3.97%
36 | COc1ccc(-c2nn(-c3ccc(F)cc3F)c3c2cnc2ccc(F)cc23)cc1 | inactive: 0%
37 | CC(=O)N1CCCc2cc(S(=O)(=O)NCc3ccc(OC(C)C)cc3)ccc21 | inactive: -8.6%
38 | N#Cc1ccccc1NC(=O)C(=O)NCC(c1cccnc1)N1CCN(c2ccccc2)CC1 (configuration not stated) | inactive: 0%
39 | Cc1cccc(C(=O)Nc2cccc(C(=O)OCc3cc(=O)n4nc(C5CC5)sc4n3)c2)c1 | inactive: 0%
40 | CCOc1ccc(C(=O)Nc2ccc3nc(SCC(=O)N4CCOCC4)sc3c2)cc1 | inactive: -3.75%
41 | Cc1ccc(OCC(=O)Nc2ccc(-c3nc4ccc(C)cc4o3)cc2)cc1 | inactive: -4.2%
42 | CCN1CCN(C(=O)c2ccc3c(c2)N(Cc2cc(C)ccc2C)C(=O)c2ccccc2S3(=O)=O)CC1 | inactive: -1.9%

Row | Structure (SMILES) | activity change, negative = inhibition
43 | CCOC(=O)c1c(C)oc2nc(C)nc(NCCc3ccc(S(N)(=O)=O)cc3)c12 | inactive: 2.72%
44 | O=C(NCCc1ccccc1)c1cnc2sc(N3CCOCC3)nn2c1=O | inactive: -0.668%
45 | CCOc1ccccc1Nc1ccc2cc(S(=O)(=O)N3CCCCC3)ccc2n1 | inactive: -20.4%
46 | CCCSCCCNC(=O)CN1C(=O)COc2ccc(S(=O)(=O)N3CCCCCC3)cc21 | inactive: -5.33%
47 | Cc1cc(NC(=O)CN(c2cccc(C)c2C)S(=O)(=O)c2ccccc2)ccc1Br | inactive: -17.7%
48 | O=C(Nc1ccc(F)cc1F)C1CCCN1S(=O)(=O)c1cccc2nsnc12 (configuration not stated) | inactive: -4.68%
49 | COc1ccc(CCC(=O)NCc2ccc3c(c2)CCN3C(=O)c2cccc(C)c2)cc1 | inactive: -6.13%
50 | CCCOc1ccc(CNC(=O)C2CCN(c3nn4c(=O)cc(C)nc4s3)CC2)cc1 | inactive: -0.225%
51 | CCOC(=O)c1[nH]c(C)c(C(=O)NCc2ccc(F)cc2)c1C | inactive: -5.46%
52 | Cc1cccc(-c2nnc(SCCC(=O)O)o2)c1 | inactive: -0.398%
53 | Cc1cccc(NC(=O)CN2C(=O)CCc3ccccc32)c1C | inactive: -12.6%
54 | CCOc1ccc(CCNC(=O)c2cnc3c(-c4ccccc4)c(C)nn3c2C)cc1OCC | inactive: -9.55%
55 | COc1ccc(N2CCN(c3oc(/C=C/c4cccc(OC)c4)nc3C#N)CC2)cc1 | inactive: 3.38%
56 | CCc1ccc(CNC(=O)C2CCN(c3nnc(-n4c(C)ccc4C)s3)CC2)cc1 | inactive: -4.32%
57 | O=[N+]([O-])c1ccc(C(c2sc3nc(-c4ccco4)nn3c2O)N2CCC3(CC2)OCCO3)cc1 (configuration not stated) | inactive: -3.95%
58 | CC(C)c1ccc(OCC(=O)Nc2cc(-c3nc4ncccc4o3)ccc2Cl)cc1 | inactive: -0.434%
59 | COc1ccccc1CNC(=O)C(C)n1c(=O)cc(C(F)(F)F)c2c(C)nn(C)c21 (configuration not stated) | inactive: 4.26%
60 | CCCCC(=O)Nc1ccc(OCc2cc(=O)n3ccc(C)cc3n2)cc1 | inactive: 8.77%
61 | CCCCN(CCCC)c1nc(-c2ccccc2)nc2ccccc12 | inactive: 9.17%
62 | Cc1oc(-c2cccc(Cl)c2)nc1CSCC(=O)O | inactive: 5.13%
